Assay results as given in the supplement of paper PMC8183993.
Where “and” joins values, the source holds several entries; their conditions need not be identical. Equal values may be shown once. Where a name gives a salt, the structure may show the parent alone. ± gives the standard deviation of the averaged measurements. In all, about 3,200 compounds were measured (“nuclei count (viability) relative to DMSO”: median about 99, lowest 2% from about 16 on). The list shows a part of the results.

The compounds below were run on U2OS (assay: nuclei count (viability) relative to DMSO (% of DMSO); higher = more viable cells). Details: 10 µM; 24 h.
Procedure: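 Primary image-based screen in U2OS cells: compounds at 10 uM for 24 h, then a 1 h o-propargyl-puromycin (OPP) pulse, click labelling, and high-throughput microscopy. Mean cytoplasmic OPP intensity and nuclei count were normalised to DMSO wells within each plate (DMSO = 100) and averaged over triplicate plates.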

| Compound | nuclei count |
| --- | --- |
| CCN(CC)C(=O)N1CCN(C)CC1 [Diethylcarbamazine citrate] | 113 |
| O=C(O)c1cc(O)c(O)c(O)c1 [Gallic acid] | 103 |
| O=P(O)(O)C(O)(Cc1cccnc1)P(=O)(O)O [Risedronate sodium] | 95.1 |
| O=P(O)(O)C(O)(Cc1cccnc1)P(=O)(O)O [Risedronic acid (Actonel)] | 104 |
| O=S(=O)(O)CCSSCCS(=O)(=O)O [Dimesna] | 103 |
| CO[C@H]1C(=O)[C@]2(C)[C@@H](OC)C[C@H]3OC[C@@]3(OC(C)=O)[C@H]2[C@H](OC(=O)c2ccccc2)[C@]2(O)C[C@H](OC(=O)[C@H](O)[C@@H](NC(=O)OC(C)(C)C)c3ccccc3)C(C)=C1C2(C)C [Cabazitaxel (Jevtana)] | 47.7 |
| CCCC(C(=O)OCCN(CC)CC)(c1ccccc1)c1ccccc1 [Proadifen hydrochloride] | 112 |
| C=CC[N@@+]12CC[C@@]34c5ccccc5N5/C=C6/[C@H]7C[C@H]8[C@@]9(CC[N@@+]8(CC=C)C/C7=C/CO)c7ccccc7N(/C=C(/[C@@H](C[C@@H]31)/C(=C\CO)C2)[C@H]54)[C@@H]69 [Alcuronium chloride] | 101 |
| C[C@H](CCC(=O)NCC(=O)O)[C@H]1CC[C@H]2[C@@H]3[C@H](O)C[C@@H]4C[C@H](O)CC[C@]4(C)[C@H]3C[C@H](O)[C@]12C [Glycocholic acid] | 106 |
| Clc1ccc(COC(Cn2ccnc2)c2ccc(Cl)cc2Cl)cc1 (stereo not drawn) [Econazole nitrate] | 102 |
| Clc1ccccc1C(c1ccccc1)(c1ccccc1)n1ccnc1 [Clotrimazole] | 97.6 |
| CC[C@H](Nc1ncnc2[nH]cnc12)c1nc2cccc(F)c2c(=O)n1-c1ccccc1 | 100 |
| CCOC(=O)C1=CN(Cc2ccccc2)C=C(C(=O)OCC)C1c1ccccc1 | 80.1 |
| O=C(NC1CCNCC1)c1n[nH]cc1NC(=O)c1c(Cl)cccc1Cl | 41.2 |
| CC(C)c1noc(N2CCC(COc3ccc(-c4ccc(S(C)(=O)=O)cc4)nc3)CC2)n1 | 109 |
| Cc1onc(-c2ccccc2)c1C(=O)N[C@@H]1C(=O)N2[C@@H]1SC(C)(C)[C@@H]2C(=O)O [Oxacillin sodium monohydrate] | 86.8 |
| Cc1onc(-c2ccccc2)c1C(=O)N[C@@H]1C(=O)N2[C@@H]1SC(C)(C)[C@@H]2C(=O)O [Oxacillin sodium] | 95.7 |
| CN(C)[C@@H](CCOc1cccc2ccccc12)c1ccccc1 [Dapoxetine HCl (Priligy)] | 105 |
| CCCC(CCC)C(=O)O [Sodium Valproate] | 108 |
| CCCC(CCC)C(=O)O [Sodium valproate] | 105 |
| CCCC(CCC)C(=O)O [Valproic acid] | 104 ± 1.1 |
| CN(C)CCCC1(c2ccc(F)cc2)OCc2cc(C#N)ccc21 (stereo not drawn) [Citalopram hydrobromide] | 96.7 |
| CN(C)CCCC1(c2ccc(F)cc2)OCc2cc(C#N)ccc21 (stereo not drawn) [Citalopram Hydrobromide] | 97.5 |
| COc1cc(N)c(Cl)cc1C(=O)NC1CCN(CCCOc2ccc(F)cc2)CC1OC (stereo not drawn) [Cisapride] | 107 |
| CN(C)CCC(c1ccc(Cl)cc1)c1ccccn1 (stereo not drawn) [Chlorpheniramine maleate] | 87.7 |

| Compound | nuclei count |
| --- | --- |
| CCN(CC)CCCCC1CCN(CC(=O)N2c3ccccc3C(=O)Nc3cccnc32)CC1 | 102 |
| COc1ccccc1N1CCN(CCN2C(=O)CC3(CCCC3)CC2=O)CC1 [BMY 7378 dihydrochloride] | 99.8 |
| O[C@@H](COc1cccc2ncccc12)CN1CCN(C2c3ccccc3[C@@H]3[C@H](c4ccccc42)C3(F)F)CC1 (stereo partly drawn) | 97.9 |
| O=S(=O)(NCCNC/C=C/c1ccc(Br)cc1)c1cccc2cnccc12 | 84.6 |
| O=S(=O)(NCCNC/C=C/c1ccc(Br)cc1)c1cccc2cnccc12 [H 89 dihydrochloride] | 98.2 |
| C[C@H](NC(=O)/C(C#N)=C/c1ccc(O)c(O)c1)c1ccccc1 [Tyrphostin B44, (+) enantiomer] | 93.4 |
| COc1ccc(-c2coc3cc(O)cc(O)c3c2=O)cc1 [Biochanin A (4-Methylgenistein)] | 89.8 |
| CC(C)(C)c1cc(/C=C(\C#N)C(N)=S)cc(C(C)(C)C)c1O [Tyrphostin AG 879 (AG 879)] | 79.3 |
| COC1=CC(=O)C[C@@H](C)[C@]12Oc1c(Cl)c(OC)cc(OC)c1C2=O [Griseofulvin] | 81.4 |
| CCC(=O)NCC[C@@H]1CCc2ccc3c(c21)CCO3 [Ramelteon (TAK-375)] | 116 |
| O=C(Nc1ccc(C(F)(F)F)cn1)N1CCN(c2ncccc2C(F)(F)F)CC1 | 100 |
| COC(=O)Nc1nc2cc(C(=O)c3ccc(F)cc3)ccc2[nH]1 [Flubendazole (Flutelmium)] | 66.8 |
| COC(=O)Nc1nc2cc(C(=O)c3ccc(F)cc3)ccc2[nH]1 [Flubendazol] | 55.5 |
| NC1=N[C@@]2(c3cc(NC(=O)c4ccc(F)cn4)ccc3F)COC[C@H]2CS1 | 109 |
| COC1=C(OC)C(=O)C(C/C=C(\C)CC/C=C(\C)CC/C=C(\C)CC/C=C(\C)CC/C=C(\C)CC/C=C(\C)CC/C=C(\C)CC/C=C(\C)CC/C=C(\C)CCC=C(C)C)=C(C)C1=O [Coenzyme Q10 (CoQ10)] | 109 |
| COc1ccc(COc2cc3oc(=O)c4cc(C(C)O)ccc4c3cc2OC)cc1 (stereo not drawn) [Palomid 529] | 92.9 ± 14 |
| CC(=O)NCCc1c(Cc2ccccc2)[nH]c2ccccc12 [Luzindole] | 106 |
| O=C(O[C@@H]1C[C@@H]2C[C@H]3C[C@H](C1)N2CC3=O)c1c[nH]c2ccccc12 [Dolasetron mesilate] | 97.9 |
| O=C(O)c1ccccc1Nc1cccc(OCc2ccc3ccccc3n2)c1 [SR 2640 hydrochloride] | 94.8 |
| CC(C)(C)NCC(O)c1ccc(O)c(CO)c1 (stereo not drawn) [Salbutamol] | 105 |
| CCCCC[C@H](O)CC(=O)CCc1ccc(O)c(OC)c1 [Gingerol] | 99.4 |
| CCCCC[C@H](O)CC(=O)CCc1ccc(O)c(OC)c1 [6-Gingerol] | 104 |
| CO[C@H]1C[C@@H]2CC[C@@H](C)[C@@](O)(O2)C(=O)C(=O)N2CCCC[C@H]2C(=O)O[C@H]([C@H](C)C[C@@H]2CC[C@@H](OP(C)(C)=O)[C@H](OC)C2)CC(=O)[C@H](C)/C=C(\C)[C@@H](O)[C@@H](OC)C(=O)[C@H](C)C[C@H](C)/C=C/C=C/C=C/1C [Deforolimus (Ridaforolimus)] | 93.2 |
| CO[C@H]1C[C@@H]2CC[C@@H](C)[C@@](O)(O2)C(=O)C(=O)N2CCCC[C@H]2C(=O)O[C@H]([C@H](C)C[C@@H]2CC[C@@H](OP(C)(C)=O)[C@H](OC)C2)CC(=O)[C@H](C)/C=C(\C)[C@@H](O)[C@@H](OC)C(=O)[C@H](C)C[C@H](C)/C=C/C=C/C=C/1C [Deforolimus (MK-8669)] | 91.7 |
| CCn1c(=O)n(C2=C(CO)CN(CC3CCCCCCC3)CC2)c2ccccc21 | 103 |

| Compound | nuclei count |
| --- | --- |
| Cn1c(=O)c2c(ncn2C)n(C)c1=O [Caffeine] | 105.4 ± 0.12 |
| CC[C@@H]1C(=O)N(C)c2cnc(Nc3ccc(C(=O)NC4CCN(C)CC4)cc3OC)nc2N1C1CCCC1 | 30.6 |
| O=C1CCc2c(ccc3ccccc23)O1 [Splitomicin] | 104 ± 5.1 |
| O=C1c2ccccc2C(Cc2ccncc2)(Cc2ccncc2)c2ccccc21 [XE 991 dihydrochloride] | 106 |
| Cc1c(OCC(F)(F)F)ccnc1C[S+]([O-])c1nc2ccccc2[nH]1 (stereo not drawn) [Lansoprazole] | 105.6 ± 0.19 |
| CCN1CCN(c2cc(-c3ccc(F)cc3)c3c(n2)CCCCCC3)CC1 [Blonanserin (Lonasen)] | 98.7 |
| C#CCN(C)CC1=Cc2ccccc2Oc2ccccc21 | 107 |
| CNC(=O)CN1CCC(Oc2cc3c(Nc4cccc(Cl)c4F)ncnc3cc2OC)CC1 | 96.1 |
| CCCS(=O)(=O)Nc1ccc(F)c(C(=O)c2c[nH]c3ncc(Cl)cc23)c1F | 101 |
| Nc1nc(N)nc(-c2cc(Cl)ccc2Cl)n1 [Irsogladine maleate] | 106 ± 5.5 |
| CCN1CCCC1CNC(=O)c1cc(S(=O)(=O)CC)c(N)cc1OC (stereo not drawn) [Amisulpride] | 87 ± 19 |
| COc1cc(N)c(Cl)cc1C(=O)NC1CCN(Cc2ccccc2)CC1 [Clebopride maleate] | 105 |
| O=C(Nc1cccc(Cl)c1)Nc1ncc(CCNc2ncnc3ccsc23)s1 [SNS-314 Mesylate] | 48.6 |
| Nc1ncnc2c1c(-c1cccc(OCc3ccccc3)c1)cn2C1CC(CN2CCCC2)C1 (stereo not drawn) | 70.4 |
| COc1ccccc1OCCNCC(O)COc1cccc2[nH]c3ccccc3c12 (stereo not drawn) [Carvedilol] | 101 ± 3.4 |
| CCC(CC)[C@H](NC(C)=O)[C@@H]1[C@H](O)[C@@H](C(=O)O)C[C@H]1NC(=N)N [Peramivir  Trihydrate] | 106 |
| COc1cc2c(cc1OC)-c1cc3nc4ccccc4nc3n1C(C)(C)C2 | 105 |
| CC(C)c1nc(CN(C)C(=O)N[C@H](C(=O)N[C@@H](Cc2ccccc2)C[C@H](O)[C@H](Cc2ccccc2)NC(=O)OCc2cncs2)C(C)C)cs1 [Ritonavir] | 103 |
| COc1c(O)cc2c(c1O)[C@@H]1O[C@H](CO)[C@@H](O)[C@H](O)[C@H]1OC2=O [Bergenin (Cuscutin)] | 98.5 |
| CC(C)[C@H]1CC[C@H](C(=O)N[C@H](Cc2ccccc2)C(=O)O)CC1 [Nateglinide (Starlix)] | 96.1 |
| Nc1cccc(-c2cc3c(Oc4cccc(O)c4)ncnc3[nH]2)c1 | 42.4 and 45.9 |
| COc1ccc(C(C)=O)c(O)c1 [Paeonol] | 107 |
| COc1ccc(-n2nc(C(N)=O)c3c2C(=O)N(c2ccc(N4CCCCC4=O)cc2)CC3)cc1 [Apixaban] | 119 |
